Test results: article PMC1479330
Results are given in words; binding and its absence hold for the method and conditions named. Binding seen in cells or lysates may run through a third protein. Some entries that bind do so weakly or less than the wild type.

Chains of the proteins cited; added tags and fusions are not shown.
UniProt P63208: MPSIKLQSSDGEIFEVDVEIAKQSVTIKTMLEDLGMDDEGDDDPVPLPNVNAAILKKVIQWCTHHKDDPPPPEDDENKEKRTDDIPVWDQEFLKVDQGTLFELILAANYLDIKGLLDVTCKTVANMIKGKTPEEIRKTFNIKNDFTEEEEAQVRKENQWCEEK

Tests used:
[1] = molecular target: alpha 6 subunit of the 20S proteasome (human (endogenous in HeLa and 293T)) (UniProt P25786); assay: co-IP; HeLa cell lysate immunoprecipitated with monoclonal antibodies to the alpha 6, alpha 2 or alpha 4 subunit of the 20S proteasome; immunoblot
[2] = molecular target: FLAG-tagged full-length Cul1 (aa 1-776) (UniProt Q13616); assay: co-IP; 293T cells transfected with FLAG-tagged Cul1 or deletion mutants; extracts immunoprecipitated with an antibody to the FLAG epitope; immunoblot
[3] = molecular target: FLAG-tagged Cul1 (aa 1-300) (UniProt Q13616); assay: as above
[4] = molecular target: FLAG-tagged Cul1 (aa 1-645) (UniProt Q13616); assay: as above
[5] = molecular target: FLAG-tagged Cul1 (aa 1-452) (UniProt Q13616); assay: as above
[6] = molecular target: FLAG-tagged Cul1 (aa 324-776) (UniProt Q13616); assay: as above

Skp1 (from UniProt P63208 1-163)
binding [1]: binds

alpha 6 subunit of the 20S proteasome (from UniProt P25786 1-263)
binding [2]: binds | binding [3]: binds | binding [4]: binds | binding [5]: binds | binding [6]: no binding
